Measurements: PubChem BioAssay AID686978 (National Center for Advancing Translational Sciences (NCATS), 2013)
In all, about 420,000 compounds went through this assay and about 64,000 (15%) were called active. Inconclusive means that the source gave no clear call. Such entries were picked first, then a sample of the others. The call rests on the fitted dose curve; in most records, active means well fitted inhibition curve with a large enough effect; inconclusive means small, poorly fitted or top-dose-only effect; inactive means flat fitted curve, though single readings scatter. Potencies of inconclusive entries are left out as doubtful fits.

Assay: qHTS for Inhibitors of human tyrosyl-DNA phosphodiesterase 1 (TDP1): qHTS in cells in absence of CPT; further: nearly all actives have a fitted effect of over 55% in size
Details: DT40 Tdp1-/- hTDP1 cells, no CPT, ATP luminescence, 48 h; activity change, negative = growth inhibition: at 46.2 µM (top of the series) unless noted
How it was run: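 No-CPT arm: Tdp1-/-;hTDP1 DT40 cells (400/well) plus compounds, incubated ≥48 hr at 37 °C. Readout CellTiter-Glo luminescence.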
On the % scale 0 is the no-effect control and ±100 the full control effect; potency means the concentration at half of the fitted maximal effect; tags describe the fitted curve by direction and shape.

**Q.** For `CC(C)(C)[C@@H]1COC(=O)[C@H](Cc2ccc(F)cc2)C/C=C\C[C@H](CC(=O)N(CCO)Cc2ccccc2)C(=O)N1`, which Potency is on record?
**A.** active: 20.6 µM

**Q.** For `COc1ccc(CC2(CO)CCN(S(=O)(=O)c3c(C)nn(C)c3Cl)CC2)cc1`, which “activity change, negative = growth inhibition” value is on record?
**A.** inactive: -10.1%

**Q.** With `Clc1cc2c(cc1/C=N/Nc1nc(N3CCOCC3)nc(N3CCOCC3)n1)OCO2` as the compound, how does the Potency read?
**A.** inconclusive [inhibitor, single point]

**Q.** For `CC1CCCN(C(=O)COC(=O)CSc2ccc(C(N)=O)cc2[N+](=O)[O-])C1` (stereo not given), which “activity change, negative = growth inhibition” value is on record?
**A.** inactive: -19.1%

**Q.** For `CC(C)(C)OC(=O)[C@H]1[C@H](c2ccc([N+](=O)[O-])cc2)C2(C(=O)c3ccccc3C2=O)C2c3ccccc3C=NN21` (stereo not given in full), which Potency is on record?
**A.** active: 18.4 µM

**Q.** Which “activity change, negative = growth inhibition” value does the source give for `COc1ccc(CCN(C)c2ccc(C(N)=O)cc2[N+](=O)[O-])cc1OC` here?
**A.** inactive: -14.9%

**Q.** Which Potency does the source give for `CC(=O)c1cccc(NC(=O)C(=O)c2cn(CC(=O)N3CCCCC3)c3ccccc23)c1` here?
**A.** active: 23.1 µM

**Q.** For `COc1ccc(C(=O)N2CC(=O)Nc3ccc(C)cc3C2c2ccccc2)cc1` (stereo not given), which Potency is on record?
**A.** inconclusive [inhibitor, single point]

**Q.** For `CC(C)[C@H](NC(=O)N1c2ccccc2NC(=O)[C@@H]1C(C)C)C(=O)N1CCC[C@H]1C(=O)O`, which “activity change, negative = growth inhibition” value is on record?
**A.** inactive: 1.3%

**Q.** With `Cn1ccc2c(-c3ccc(C(F)(F)F)cc3)cc3c(c21)C1CCC3C1` (stereo not given) as the compound, how does the Potency read?
**A.** inconclusive [inhibitor, single point]

**Q.** With `O=C(Cc1ccc(-n2c(=O)[nH]c3ccsc3c2=O)cc1)N1CCN(c2ccc(Cl)cc2)CC1` as the compound, how does the Potency read?
**A.** inconclusive [inhibitor, single point]

**Q.** Which “activity change, negative = growth inhibition” value does the source give for `O=C(CN1C(=O)NC2(CCCC2)C1=O)N1CCN(c2ccccc2Cl)CC1` here?
**A.** inactive: -26.7%

**Q.** For `O=C(c1ccc2c(c1)N(Cc1ccc(F)cc1)C(=O)c1ccccc1S2(=O)=O)N1CCN(Cc2ccccc2)CC1`, which Potency is on record?
**A.** active: 8.2 µM

**Q.** For `COc1ccc(-c2nc(SCC(=O)Nc3ccc4c(c3)OCCO4)c(-c3ccc(F)cc3)[nH]2)cc1OC`, which Potency is on record?
**A.** active: 20.6 µM

**Q.** With `CN(C)/N=C/c1cc([N+](=O)[O-])ccc1O` as the compound, how does the Potency read?
**A.** inconclusive [inhibitor, single point]

**Q.** Which Potency does the source give for `COC(=O)C[C@H]1c2ccccc2S(=O)(=O)N1c1cccc(OC)c1` here?
**A.** inactive

**Q.** For `CC1CCN(S(=O)(=O)c2ccc(NC(=O)Cn3nnc(-c4ccccc4F)n3)cc2)CC1`, which Potency is on record?
**A.** inconclusive [inhibitor, single point]

**Q.** With `CC1CCN(C(=O)c2ccc(-n3cnnn3)cc2)CC1` as the compound, how does the “activity change, negative = growth inhibition” value read?
**A.** inactive: -24.8%

**Q.** For `CN(Cc1ccc(Br)cc1)C(=O)CCN1C(=O)c2cccc([N+](=O)[O-])c2C1=O`, which “activity change, negative = growth inhibition” value is on record?
**A.** inactive: -7.27%

**Q.** Which Potency does the source give for `COc1ccc(Nc2nc(NCc3ccco3)nc(N/N=C/c3ccccc3)n2)cc1` here?
**A.** inconclusive [inhibitor, single point]
